Source: PubChem BioAssay AID1745853 (National Center for Advancing Translational Sciences (NCATS), 2022)
The other results are listed elsewhere or left out. Shown are side measurements of this screen, not its main read-out; they come without a call.

Assays:
Experiment in all cases: Primary Screen for Target Class Profiling of Small Molecule Inhibitors of Methyltransferases
[1] = molecular target: Glycine N-methyltransferase (Homo sapiens) (UniProt Q14749); conditions: purified enzyme, MTase-Glo SAH luminescence; measured here: GNMT inhibition; at 40 µM; stronger effect = lower value
In short: (§1)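 Each enzyme was assayed with SAM and its substrate. SAH formation detected by MTase-Glo luminescence; single-point 40 uM screen[…].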

[2] = molecular target: Guanidinoacetate N-methyltransferase (Homo sapiens) (UniProt Q14353); conditions: purified enzyme, MTase-Glo SAH luminescence; measured here: GAMT inhibition; at 40 µM; stronger effect = lower value
In short: as §1

[3] = molecular target: Histamine N-methyltransferase (Homo sapiens) (UniProt P50135); conditions: purified enzyme, MTase-Glo SAH luminescence; measured here: HNMT inhibition; at 40 µM; stronger effect = lower value
In short: as §1

[4] = molecular target: Nicotinamide N-methyltransferase (Homo sapiens) (UniProt P40261); conditions: purified enzyme, MTase-Glo SAH luminescence; measured here: NNMT inhibition; at 40 µM; stronger effect = lower value
In short: as §1

[5] = molecular target: Phenylethanolamine N-methyltransferase (Homo sapiens) (UniProt P11086); conditions: purified enzyme, MTase-Glo SAH luminescence; measured here: PNMT inhibition; at 40 µM; stronger effect = lower value
In short: as §1
% is set by controls: 0 for no effect and ±100 for the full control effect.

Compound	activity change, negative = inhibition [1]	activity change, negative = inhibition [2]	activity change, negative = inhibition [3]	activity change, negative = inhibition [4]	activity change, negative = inhibition [5]
CCCn1c(=O)c2ccc(C(=O)NC3CCCCC3)cc2n2c(=O)n(Cc3ccccc3C)nc12	1.13%	5.08%	1.43%	2.8%	1.32%
CCOCCOc1cccc(C(=O)N2C[C@@H](N(C)C)[C@H](C(C)C)C2)c1	-4.33%	-4.5%	-1.37%	-6.96%	-7.18%
CC(C)OCCCn1c(=O)c2ccccc2n2c(SCc3c(F)cccc3Cl)nnc12	-3.76%	0%	0.544%	-13.1%	0.012%
CC1(COCC2CC2)COc2ccc(C(=O)Nc3cccc([S+](C)(=O)[O-])c3)cc2N1 (centres undefined)	-6.75%	-1.4%	-6.22%	-5.34%	-6.69%
Cc1ccc(C(=O)Nc2ccc(CN3CCN(C)CC3)c(C(F)(F)F)c2)cc1C#Cc1cnc2cccnn12	-19.7%	5.48%	-14%	-16.6%	-2.25%
c1ccc2c(c1)CCC[C@H]2Nc1nc2ccccc2[nH]1	3.46%	14.1%	1.45%	-5.19%	8.87%
O=C(c1ccccc1F)N1CC2(C1)C(=O)Nc1ccccc12	-4.02%	-3.66%	-0.627%	-7.91%	-5.32%
CCC(C)NC(=O)Cn1nc2n(Cc3ccccc3)c(=O)c3ccc(C(=O)NC4CCCC4)cc3n2c1=O (centres undefined)	-5.28%	-0.225%	-0.407%	-8.53%	-3.29%
CCc1cc2c(cc3n2CC(C)(C(=O)NC2CCCCCC2)N(C(C)c2ccccc2)C3=O)s1 (centres undefined)	-0.792%	3.06%	-3.09%	-1.41%	-5.97%
CCO[C@H]1CN(C2CCC(O)(c3ccc4c(c3)OCO4)CC2)C[C@@H]1NC(=O)CNC(=O)c1cccc(C(F)(F)F)c1 (some centres undefined)	3.75%	-1.67%	0.197%	-17.2%	-7.79%
COc1ccc(O[C@H]2COCCN(C(=O)C3CCCC3)C2)cc1	-4.67%	-5.93%	-2.36%	-8.95%	-2.71%
CCOC(=O)c1c(C)c2n(c1C)CC(C)(C(=O)NC1CCCCCC1)N(Cc1ccc(Cl)cc1)C2=O (centres undefined)	-1.41%	3.57%	-4.29%	0.003%	-0.605%
COc1ccccc1C(=O)Nc1cc2c(cc1N1CCCCC1)n(C)c(=O)n2C	-12.8%	–	-2.87%	5.02%	38.1%
C[C@@H]1C[C@H](C)CN(CCC(=O)Nc2ccc(Br)cc2)C1	-1.57%	-5.13%	-24%	-16%	-15.6%
CN1C(=O)c2cc(C(=O)NCc3ccc(F)cc3)nn2CC1(C)C(=O)NC1CCCCCC1 (centres undefined)	2.39%	0.295%	2.93%	0.452%	-0.542%
COc1cccc(NC(=O)CCC2CCN(C(=O)C(C)n3cncn3)CC2)c1 (centres undefined)	-1.57%	-0.402%	0.118%	1.56%	9.47%
COC[C@H]1C[C@@H](NCc2cccc3c2OCO3)[C@H](O)[C@@H]1O	1.17%	1.32%	3.63%	-4.42%	7.22%
O=C(NCc1nc(-c2cccc(F)c2)c(-c2ccccn2)[nH]1)C1CCOC1 (centres undefined)	-4.91%	-1.45%	1.58%	-1.65%	-0.307%
COc1cccc(CN2CCCC(O)(CN3CCC(C)CC3)C2=O)c1 (centres undefined)	-2.6%	-4.23%	-0.761%	-7.78%	-3.91%
